Data taken from PMC4336329 (PLoS ONE, 2015).
In all, about 310,000 compounds went through this assay and about 2,200 (0.71%) showed an effect of 50% or more. Effects have a minus sign here. Some of the results follow.

target: human ether-à-go-go-related gene (hERG) potassium channel (human, UniProt Q12809); test: primary screen, population patch clamp on CHO cells stably expressing hERG
Sequence (Q12809 whole entry, looked up): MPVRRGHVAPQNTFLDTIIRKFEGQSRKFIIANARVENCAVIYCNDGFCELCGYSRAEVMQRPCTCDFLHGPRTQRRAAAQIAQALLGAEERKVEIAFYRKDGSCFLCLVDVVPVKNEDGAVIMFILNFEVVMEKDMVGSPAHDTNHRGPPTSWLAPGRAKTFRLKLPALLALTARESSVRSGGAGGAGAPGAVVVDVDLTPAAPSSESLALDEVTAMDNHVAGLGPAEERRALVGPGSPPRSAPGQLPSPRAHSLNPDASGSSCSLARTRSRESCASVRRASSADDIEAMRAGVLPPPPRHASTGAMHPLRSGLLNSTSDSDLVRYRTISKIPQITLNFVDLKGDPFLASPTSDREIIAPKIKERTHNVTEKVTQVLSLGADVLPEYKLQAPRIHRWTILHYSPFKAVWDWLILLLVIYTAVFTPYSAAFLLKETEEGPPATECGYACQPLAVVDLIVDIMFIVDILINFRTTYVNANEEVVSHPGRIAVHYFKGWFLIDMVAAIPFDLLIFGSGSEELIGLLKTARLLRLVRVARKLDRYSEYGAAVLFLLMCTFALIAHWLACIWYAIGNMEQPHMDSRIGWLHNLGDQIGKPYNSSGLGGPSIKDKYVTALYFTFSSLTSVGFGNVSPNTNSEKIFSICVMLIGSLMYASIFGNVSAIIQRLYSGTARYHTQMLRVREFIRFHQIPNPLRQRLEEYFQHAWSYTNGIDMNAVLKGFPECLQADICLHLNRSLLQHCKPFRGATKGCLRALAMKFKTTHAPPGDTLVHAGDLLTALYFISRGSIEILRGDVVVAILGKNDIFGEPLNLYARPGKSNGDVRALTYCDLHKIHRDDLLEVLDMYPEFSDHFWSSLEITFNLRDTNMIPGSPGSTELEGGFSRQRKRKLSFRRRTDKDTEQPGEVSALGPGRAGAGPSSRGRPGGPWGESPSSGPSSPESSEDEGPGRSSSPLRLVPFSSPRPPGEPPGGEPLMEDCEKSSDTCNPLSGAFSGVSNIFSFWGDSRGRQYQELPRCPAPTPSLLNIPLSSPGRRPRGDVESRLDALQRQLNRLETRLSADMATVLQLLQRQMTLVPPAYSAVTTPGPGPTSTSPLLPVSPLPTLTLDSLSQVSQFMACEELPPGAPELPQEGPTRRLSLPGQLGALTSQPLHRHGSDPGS

Row | Compound | hERG current change (%, negative = inhibition) at 1uM
1 | COc1ccccc1NC(=O)c1ccc(Br)c(S(=O)(=O)N2CCCC2)c1 | 13.6%
2 | O=C(O)c1ccc2c(=O)n3c(nc2c1)/C(=C/c1ccc(Cl)c(Cl)c1)CC3 | 11.5%
3 | COc1cccc(-c2cc(C(=O)N3CCN(c4ccc(F)cc4)CC3)no2)c1 | 13.5%
4 | Cc1cccc(-n2cc(CN3CCN(c4ccccn4)CC3)c(-c3cccc(F)c3)n2)c1 | 8.32%
5 | COC1(C)CC2C(CC1OC(=O)c1cc([N+](=O)[O-])cc([N+](=O)[O-])c1)C2(C)C (centres unmarked) | 1.1%
6 | CCOc1ccc(C2C(C(=O)NC)=C(C)Nc3nc4ccccc4n32)cc1OC (centres unmarked) | 15.2%
7 | O=C(Nc1cccc(S(=O)(=O)NC2=NCCCCC2)c1)c1cc(-c2ccccc2)nc2ccccc12 | 9.54%
8 | CCOC(=O)c1c(C)[nH]c(C(=O)N2CCC(C(=O)OCC)CC2)c1C | 16.1%
9 | OCC[C@@H]1C[C@H](O)[C@@H](O)[C@]2(CCCCO2)O1 | 20.9%
10 | CC(=O)c1cc2c(=O)c3cc(C)ccc3oc2nc1C | -5.19%
11 | COCCNC(=S)N(CCc1c(C)[nH]c2ccccc12)Cc1cccnc1 | 7.64%
12 | CCc1ccc(N2CC(C(=O)Nc3cc(C)ccc3F)CC2=O)cc1 (centres unmarked) | 7.97%
13 | O=C(NCCOc1ccc(Cl)cc1)C1CC(=O)N(c2ccc3c(c2)OCCO3)C1 (centres unmarked) | -7.81%
14 | O=C(O)Cn1ccc2ccccc21 | 18.2%
15 | CCCCOc1ccc(CSC2=NCCN2)cc1[N+](=O)[O-].Cl | -22.3%
16 | OCC[C@@H]1C[C@@H](O)[C@H](O)[C@@]2(CCCCO2)O1 | 15.7%
17 | CN(C(=O)CSc1nncc2ccccc12)C1CCCCC1 | 14.7%
18 | COc1cccc(C(=O)Nc2ncc3c(n2)CC(c2ccc(OC)cc2OC)CC3=O)c1 (centres unmarked) | 4.75%
19 | COc1ccc(/C(=C/Nc2cccc(Br)c2)C(C)=O)cc1OC | 13.6%
20 | Cc1noc(N)c1C(=O)Nc1ccc(F)cc1 | 14.6%
21 | O=C(Nc1cccc2ncccc12)c1ccc(Br)c([N+](=O)[O-])c1 | 10.3%
22 | c1ccc(-c2nc(NCCCN3CCOCC3)c3ccccc3n2)cc1 | 3.18%
23 | COc1cc(C)c(Br)cc1S(=O)(=O)NCCCN1CCOCC1 | 10.4%

Row | Compound | hERG current change (%, negative = inhibition) at 1uM
24 | CC(Sc1ccccc1)C(=O)N1CCN(S(=O)(=O)c2ccccc2)CC1 (centres unmarked) | 2.73%
25 | O=C(Nc1cnc2ccccc2c1)c1ccncc1 | 11.6%
26 | Cc1sc(NC(=O)C2CCCCC2)c(C#N)c1-c1ccccc1 | 7.6%
27 | Nc1cc(=O)[nH]c(SCC(=O)Nc2ccccc2Sc2ccccc2)n1 | 14.2%
28 | CC(C)(C)NC(=O)CSc1nnc(Cc2ccccc2)n1CC1CCCO1 (centres unmarked) | 4.15%
29 | O=C(CN1C(=O)NC2(CCCCCC2)C1=O)c1ccc(Cl)s1 | 11.9%
30 | COc1ccc(C(=O)c2c(C)c3cc(C)ccc3n2CC(O)CN2CCOCC2)cc1.Cl (centres unmarked) | -4.77%
31 | O=C(Nc1cccc(Cl)c1)Nc1cnccn1 | 14.5%
32 | COc1ccc(CN(C)S(=O)(=O)c2nnc(NC(=O)c3ccccc3OC)s2)cc1OC | 18.8%
33 | COc1ccc(N2C(=O)C(Cl)=C(NCc3ccccc3)C2=O)cc1 | 5.09%
34 | Cc1ccc(NC(=S)NCc2cccs2)c(C)c1 | 17.1%
35 | N#CCC(=N)N1CCN(c2ccc(Cl)cc2)CC1 | 2.52%
36 | Cc1ccc(SCC(=O)Nc2cccc(-c3nnc(-c4ccco4)o3)c2)cc1 | 5.32%
37 | Cc1oc(-c2ccc(F)cc2)cc1-c1nn2c(-c3ccoc3C)nnc2s1 | 18.9%
38 | Cc1ccc(NS(=O)(=O)c2cc(C(=O)N3CCOCC3)ccc2C)cc1 | -1.29%
39 | CCCNC(=O)Nc1cc(OCC)c(N2CCOCC2)cc1OCC | -4.51%
40 | CSc1nc(Sc2ccccc2)c2ccccc2n1 | 10.5%
41 | COc1cc(CN2CCCC(CCC(=O)NCc3ccc(C)o3)C2)cc2c1OCO2 (centres unmarked) | -28.7%
42 | CCCN(CCC)c1ccc(C(O)c2nnc(-c3ccccc3)o2)cc1 (centres unmarked) | 2.97%
43 | CC1=C(C(=O)N2CCN(C(=O)c3ccco3)CC2)C2(CCC(C)CC2)OC1=O (centres unmarked) | -20%
44 | O=C(c1cccc(F)c1F)N1CCCc2ccccc21 | 17.1%
45 | O=C(Oc1cccc2cccnc12)c1ccco1 | -5.44%
46 | COC(=O)c1c(NC(=O)Cn2nc(C(F)F)cc2C(F)F)sc(C)c1C | 11.6%

Row | Compound | hERG current change (%, negative = inhibition) at 1uM
47 | COc1ccc(Nc2cc3n(c(=O)n2)CCc2cc(OC)c(OC)cc2-3)c(C)c1 | 12.6%
48 | Cn1c(C(=O)NCCN2CCCCCC2)cc2c(=O)n(C)c3ccccc3c21 | -2.61%
49 | CCCCn1c(SCC(=O)N(C)C)nnc1-c1ccncc1 | 3.11%
50 | Cc1cc2c(cc1C)NC(c1cccnc1)C1=C(CC(C)(C)CC1=O)N2 (centres unmarked) | 15.8%
51 | CC(C)N(Cc1nc(-c2ccccc2)no1)C(=O)CSc1ccccc1 | 6.18%
52 | CC(C)CN(C(=O)c1cccc(Cl)c1)c1c(N)n(CC(C)C)c(=O)[nH]c1=O | 14.3%
53 | CC(C)CCNC(=O)NC(=O)COC(=O)/C=C/c1cc(Br)ccc1F | 18.7%
54 | CCn1c(CN2CCOCC2)nnc1SCC(=O)Nc1cccc(C)c1 | 5.32%
55 | CC(C)C[C@@]12C(=O)N(c3cccc(Br)c3)C(=O)N1[C@H](c1ccc(F)cc1)[C@@H]1C(=O)N(C3CCCCC3)C(=O)[C@@H]12 | 16%
56 | Cc1occc1C(=O)N/N=C/c1ccccn1 | 8%
57 | COC(=O)c1ccc(/C=N\n2c(C)nnc2C)cc1 | 11.1%
58 | NC(=O)c1nsc(C(=O)N(CC(=O)NCc2ccc(F)cc2)Cc2ccco2)c1N | 5.69%
59 | COc1ccc(NC(=O)C2CCCCN2N)cc1OCC(C)C.O=C(O)C(=O)O (centres unmarked) | 4.05%
60 | COc1ccc(S(=O)(=O)N(CC(=O)NCCC(C)C)c2ccccc2)cc1OC | 6.97%
61 | CCc1cc(C(=O)N2CCCC(C(=O)c3ccc(Cl)cc3)C2)no1 (centres unmarked) | 10.4%
62 | O=C(N/N=C(/c1ccccc1)c1ccncc1)c1ccc2c(c1)OCO2 | 2.11%
63 | O=S(=O)(Nc1nccs1)c1ccc(F)cc1 | 15.5%
64 | CCn1c(CNC(=O)c2ccccc2OC)nnc1SCC(=O)c1ccc(F)cc1 | 9.55%
65 | CCCOc1ccc(N2C(=O)CC(NNC(=O)c3ccc(COc4ccccc4)o3)C2=O)cc1 (centres unmarked) | 13.8%
66 | O=C(Nc1ccc(Br)cc1)c1cc(-c2ccc3c(c2)OCO3)on1 | 22.4%
67 | O=S(=O)(c1cccs1)N1CN(CC2CCCO2)c2nc3ccccc3nc21 (centres unmarked) | -0.564%
68 | O=c1c(O)c(-c2cccs2)oc2ccc(Cl)cc12 | 0.162%
69 | COc1ccc(-c2c(-c3cc(OC)cc(OC)c3)n(C)c3ccc(Br)cc23)cc1 | 13.4%

Row | Compound | hERG current change (%, negative = inhibition) at 1uM
70 | CCOP(=O)(Cc1cc(C(=O)CC)c(C)o1)OCC | 10.6%
71 | CCOc1ccc(/C=C2\NC(=S)NC2=O)cc1 | 8.71%
72 | CC(C(=O)Nc1ccccc1)C(=O)Nc1ccccc1 | 14.7%
73 | Cc1nnc(SCc2nc3sc(C(=O)O)c(C)c3c(=O)[nH]2)s1 | 14.1%
74 | COc1nsnc1NS(=O)(=O)c1ccc(NC(=S)NC(=O)c2cccnc2)cc1 | 17.7%
75 | CCn1c(=O)cc(SCC(=O)N2CCOCC2)c2ccccc21 | -7.86%
76 | O=C(/C=C/c1ccc(Br)cc1)NC1CCCCCC1 | 2.33%
77 | COc1ccc(CC(=O)NC(C)c2ccc3ccccc3c2)cc1 (centres unmarked) | 9.53%
78 | COc1cc(C(=O)NC(=S)NNC(=O)c2cnccn2)cc(OC)c1OC | 4.57%
79 | COc1ccc(N(CC(=O)N/N=C/c2ccc3c(c2)OCO3)S(=O)(=O)c2ccc(NC(C)=O)cc2)cc1 | 17.1%
80 | O=S(=O)(NC1=NCCC1)c1cccc(NC(=S)NCCc2ccccc2)c1 | 12.6%
81 | COc1ccc(-c2cc(C3CCN(c4ncccc4[N+](=O)[O-])CC3)[nH]n2)cc1 | 4.93%
82 | COc1ccc(-c2nc(-c3cccc(C)c3)nc(N3CCN(C)CC3)c2C#N)cc1 | -5.58%
83 | CSc1ccccc1NC(=O)Nc1cccc(Cl)c1Cl | 17.3%
84 | Cc1cc(C)nc(SC2CCOC2=O)n1 (centres unmarked) | 5.32%
85 | O=c1c2cc(Br)ccc2nc(-c2ccc(Cl)cc2)n1O | 16.4%
86 | COc1cc(NC(=O)N2c3ccccc3Sc3ccccc32)c(C(=O)O)cc1OC | 18.4%
87 | CCCCC(=O)NNC(=O)c1c(O)c2ccccc2[nH]c1=O | 6.2%
88 | CC(C)[C@H](NC(=O)c1ccccc1F)C(=O)NCc1ccc(S(N)(=O)=O)cc1 | 13.4%
89 | O=C(CC1SC(=Nc2ccccc2)N(CCO)C1=O)Nc1ccccc1 (centres unmarked) | 17.5%
